Each structure is given as a SMILES string. The whole screen tested about 110,000 compounds, of which about 230 (0.21%) showed an effect of 50% or more. The list shows a part of the results.
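Note: 30 min substrate incubation versus DMSO and 10 µM JCP410 controls.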

Chain of DPAP1 (Q8IIJ9 whole entry, looked up): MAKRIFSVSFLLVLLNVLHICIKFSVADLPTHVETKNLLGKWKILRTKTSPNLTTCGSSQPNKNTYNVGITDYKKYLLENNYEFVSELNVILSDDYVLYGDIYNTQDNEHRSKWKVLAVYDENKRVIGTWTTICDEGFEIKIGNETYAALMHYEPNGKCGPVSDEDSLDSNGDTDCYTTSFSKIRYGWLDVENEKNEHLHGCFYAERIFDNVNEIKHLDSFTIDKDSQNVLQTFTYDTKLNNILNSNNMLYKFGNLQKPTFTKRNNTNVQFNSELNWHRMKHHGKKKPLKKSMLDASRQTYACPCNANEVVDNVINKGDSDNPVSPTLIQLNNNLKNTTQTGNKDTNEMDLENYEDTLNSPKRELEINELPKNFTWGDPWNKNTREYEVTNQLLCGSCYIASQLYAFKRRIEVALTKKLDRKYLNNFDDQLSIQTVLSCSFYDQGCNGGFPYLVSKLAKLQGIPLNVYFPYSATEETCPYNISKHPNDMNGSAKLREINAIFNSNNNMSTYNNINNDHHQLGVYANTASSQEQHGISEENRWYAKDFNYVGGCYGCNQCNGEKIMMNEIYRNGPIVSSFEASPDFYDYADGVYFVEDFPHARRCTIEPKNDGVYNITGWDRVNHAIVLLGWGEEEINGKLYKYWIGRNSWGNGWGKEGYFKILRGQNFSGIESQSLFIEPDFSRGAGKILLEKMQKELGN

This test has as its target DPAP1 (Plasmodium falciparum, UniProt Q8IIJ9). The test can be described thus: primary screen, percent inhibition; read by cleavage of a fluorogenic dipeptide substrate; higher = more effect of the substance. The arrangement: species or system P. falciparum D10 trophozoite lysates; single well.
As for `CCCCC(=O)Nc1c(C(=O)OCC)sc2nc(C)c(Cl)c(C)c12`, the “% Inhibition @ 10 uM” value is 1.11%. In the case of `Cc1cccc(OCC(=O)Nc2ccc(C)c(O)c2)c1`, the “% Inhibition @ 10 uM” value was -6.39%.

Consider `CC(=O)N(C)c1ccc(NC(=O)c2ccc(F)cc2)cc1`, for which the “% Inhibition @ 10 uM” value is -3.09%. In the case of `CCOc1ccc(-c2oc3ccc(C)cc3c(=O)c2O)cc1OC` it was 1.74%; in that of `O=C1C2CCCN2C(=O)N1CCN1CCN(CCO)CC1` (stereo not drawn), -3.65%. In the case of `O=C1NC(Nc2cccc(C(=O)O)c2)=N/C1=C\c1ccccc1` it was 5.41%; in that of `CCCCNC(=O)C1(c2ccc(OC)cc2)CCOCC1`, -3.04%. In the case of `CCO/C(O)=C(\C#N)c1ccnc(O)n1` it was -2.21%; in that of `CCc1ccc(-n2nc(C)c3c(C(=O)OC)cc(C)nc32)cc1`, -4.25%; in that of `CCC(=O)Nc1ccc(-c2cnc3ccccc3n2)cc1`, -6.48%. On to `CC(C)(C)NCC(O)CO/N=C(\c1ccccc1)c1ccccn1` (stereo not drawn), for which the “% Inhibition @ 10 uM” value was determined as 0.266%. In the case of `Cc1ccccc1C(=O)c1cccn1CC(=O)NCc1cccnc1` it was 4.33%; in that of `C#CCN1C(=O)SC(Cc2cc(OCC)c(OCC)cc2Br)C1=O` (stereo not drawn), 1.96%. Take `Cc1cc(C)nc(NS(=O)(=O)c2ccc(NC(=O)c3ccoc3C)cc2)n1`: the “% Inhibition @ 10 uM” value is listed as -0.545%. On to `Nc1c(C(=O)NCCc2ccccc2)nnn1-c1ccc(OC(F)(F)F)cc1`, for which the “% Inhibition @ 10 uM” value is on record as 6.05%. `CCOC(=O)c1sc2nc3n(c(=O)c2c1C)N=C(c1cc2cccc(OC)c2oc1=O)CS3`: the “% Inhibition @ 10 uM” value is 5.38%. Take `CS(=O)(=O)N1CCN(c2nc(-c3ccccc3)cs2)CC1`: the “% Inhibition @ 10 uM” value is -3.04%.

On to `Cc1cccc(C(=O)Nc2sc(C)c(C)c2C(N)=O)c1`, for which the “% Inhibition @ 10 uM” value is given as -0.949%.

In the case of `Cc1cc(Cl)ccc1OCC(O)CN1CCN(Cc2ccc3c(c2)OCO3)CC1` (stereo not drawn), the “% Inhibition @ 10 uM” value was -9.77%. With `COc1ccc(CCNC(=O)C(C)n2nc(C)c3sc4ccccc4c3c2=O)c(OC)c1OC` (stereo not drawn) the figure was -2.78%; with `CCOP(=O)(O)COc1ccccc1O`, 2.4%; with `COc1ccc(N(CC(=O)Nc2ccccc2)S(C)(=O)=O)c(OC)c1`, 3.53%. With `Cc1cccc(CN2CCCC2CO)c1` (stereo not drawn) the figure was 1.62%; with `Cc1c(C(=O)NC2CCCCCC2)sc2ncnc(N3CCCCC3C)c12` (stereo not drawn), -2.87%. Consider `O=C(CN1C(=O)S/C(=C/c2ccc(N3CCOCC3)cc2)C1=O)N1CCOCC1`, for which the “% Inhibition @ 10 uM” value was -2.94%. On to `Cc1cc(C)c(S(=O)(=O)N(C)CC(=O)Nc2ccc(S(N)(=O)=O)cc2)c(C)c1`, for which the “% Inhibition @ 10 uM” value is recorded as -4.43%. With `CC(C)c1ccc(C2C(C(=O)c3cccs3)=C(O)C(=O)N2CCCN2CCOCC2)cc1` (stereo not drawn) the figure was 1.17%; with `Cc1ccc2oc(=O)c3cc(C(=O)NCCc4ccc(S(N)(=O)=O)cc4)sc3c2c1`, -5.58%; with `Cc1ccc(CN2CCC(CNC(=O)c3nn(C)c4c3CS(=O)(=O)c3ccccc3-4)CC2)cc1`, 4.28%.

Regarding `Nc1nnc(SCc2nc(O)c3ccccc3n2)s1`, the “% Inhibition @ 10 uM” value is on record as -0.403%. In the case of `COc1ccc(CN2CCN(Cc3cccc(OC)c3OC)CC2)cc1Br` it was 10%. `Brc1ccc(CNCCSc2nnnn2-c2ccccc2)cc1`: the “% Inhibition @ 10 uM” value is recorded as -1.31%. Turning to `COc1cc(CNc2nc[nH]n2)ccc1OCC(=O)NC(C)(C)C`, the “% Inhibition @ 10 uM” value amounted to 0.686%. On to `C=CCOc1c(Br)cc(CNc2ccc(C(=O)O)cc2)cc1OC`, for which the “% Inhibition @ 10 uM” value is -1.61%. In the case of `COc1cc(C(=O)Nc2c3c(nn2-c2cccc(C)c2C)CS(=O)(=O)C3)cc(OC)c1OC` it was -0.812%. With `O=c1nc2s/c(=C\c3ccccc3Br)c(=O)n2nc1-c1ccccc1` the figure was -7.39%; with `O=C(Nc1ccc(-c2ccc(Cl)cc2)cc1)c1ccc(Cl)s1`, -0.233%. In the case of `CC1CCCN(C2=C(Cl)C(=O)N(c3cccc(Cl)c3)C2=O)C1` (stereo not drawn) it was -4.28%; in that of `Cc1nnc(-c2ccccc2)o1`, 2.14%; in that of `Clc1ccc2nc(N3CCN(c4ccccn4)CC3)c3nncn3c2c1`, -2.19%. As to `CCOC(=O)N1CCC(NS(=O)(=O)c2c(C)nc3scc(C)n3c2=O)CC1`, the “% Inhibition @ 10 uM” value was -8.17%. Turning to `CC(C)c1ccc(NC(=O)c2cc([N+](=O)[O-])ccc2Cl)cc1`, the “% Inhibition @ 10 uM” value is listed as -7.57%. Take `CC(C)c1ccc(NC(=O)c2ccc(Br)o2)cc1`: the “% Inhibition @ 10 uM” value was 2.65%.

As for `COC(=O)c1cc(C(C)C)[nH]n1`, the “% Inhibition @ 10 uM” value amounted to 1.72%. With `CC(=O)NC1=NC(=O)/C(=C/c2cn(C)c3ccccc23)S1` the figure was 0.812%. In the case of `CC12CN3CC(C)(CN(C1)C31CCCCC1)C2O` (stereo not drawn), the “% Inhibition @ 10 uM” value was -9.93%. On to `CCn1c(C)nc2cc(Cl)c(Cl)cc21`, for which the “% Inhibition @ 10 uM” value is 1.44%.

Regarding `CC(C)CNS(=O)(=O)c1ccc(CCC(=O)N2CCN(c3cccc(Cl)c3)CC2)cc1`, the “% Inhibition @ 10 uM” value is recorded as -5.29%. `CC(O)CNc1nc2c(c(=O)n(Cc3ccccc3)c(=O)n2C)n1C` (stereo not drawn): the “% Inhibition @ 10 uM” value is on record as 0.279%.

On to `O=C(NCc1nc2ccccc2[nH]1)c1cccnc1`, for which the “% Inhibition @ 10 uM” value is on record as -2.28%. Take `Cc1ccc(-c2c(O)c(=O)/c2=N\CCN2CCCCC2C)cc1` (stereo not drawn): the “% Inhibition @ 10 uM” value is -2.57%.

The record behind these values is article PMC6919601, “Identification of Plasmodium dipeptidyl aminopeptidase allosteric inhibitors by high throughput screening” (PLoS ONE, 2019).
